Results reported in PubChem BioAssay AID504332 (National Center for Advancing Translational Sciences (NCATS), 2011).
Screen size: about 350,000 compounds; about 31,000 (8.9%) were called active. The shares of active, inactive and inconclusive entries below differ from those in the screen. The call rests on the fitted dose curve; in most records, active means well fitted inhibition curve with a large enough effect; inconclusive means small, poorly fitted or top-dose-only effect; inactive means no such curve, though single readings can be large or run the other way. Where the call is inconclusive, the potency comes from a doubtful curve fit. Some structures have more than one record in an assay (separate samples or runs), and their calls can disagree.

Biological target: Histone-lysine N-methyltransferase EHMT2 (Homo sapiens) (UniProt Q96KQ7)
Assay: qHTS Assay for Inhibitors of Histone Lysine Methyltransferase G9a; further: nearly all actives have a fitted effect of over 75% in size
Settings: G9a H3K9 monomethylation, AlphaScreen, 2 h; activity, negative = inhibition: at 59 µM (top of the series) unless noted
In short: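 G9a (20 nM) was preincubated 15 min with compound, then reacted 2 h at room temperature with 500 nM biotin-H3K9 peptide and 20 µM SAM. Monomethyl-H3K9 detected by AlphaScreen using anti-H3K9me1 antibody.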
On the % scale 0 is the no-effect control and ±100 the full control effect; potency means the concentration at half of the fitted maximal effect; tags describe the fitted curve by direction and shape.

UniProt Q96KQ7, sequence (Q96KQ7 whole entry, looked up): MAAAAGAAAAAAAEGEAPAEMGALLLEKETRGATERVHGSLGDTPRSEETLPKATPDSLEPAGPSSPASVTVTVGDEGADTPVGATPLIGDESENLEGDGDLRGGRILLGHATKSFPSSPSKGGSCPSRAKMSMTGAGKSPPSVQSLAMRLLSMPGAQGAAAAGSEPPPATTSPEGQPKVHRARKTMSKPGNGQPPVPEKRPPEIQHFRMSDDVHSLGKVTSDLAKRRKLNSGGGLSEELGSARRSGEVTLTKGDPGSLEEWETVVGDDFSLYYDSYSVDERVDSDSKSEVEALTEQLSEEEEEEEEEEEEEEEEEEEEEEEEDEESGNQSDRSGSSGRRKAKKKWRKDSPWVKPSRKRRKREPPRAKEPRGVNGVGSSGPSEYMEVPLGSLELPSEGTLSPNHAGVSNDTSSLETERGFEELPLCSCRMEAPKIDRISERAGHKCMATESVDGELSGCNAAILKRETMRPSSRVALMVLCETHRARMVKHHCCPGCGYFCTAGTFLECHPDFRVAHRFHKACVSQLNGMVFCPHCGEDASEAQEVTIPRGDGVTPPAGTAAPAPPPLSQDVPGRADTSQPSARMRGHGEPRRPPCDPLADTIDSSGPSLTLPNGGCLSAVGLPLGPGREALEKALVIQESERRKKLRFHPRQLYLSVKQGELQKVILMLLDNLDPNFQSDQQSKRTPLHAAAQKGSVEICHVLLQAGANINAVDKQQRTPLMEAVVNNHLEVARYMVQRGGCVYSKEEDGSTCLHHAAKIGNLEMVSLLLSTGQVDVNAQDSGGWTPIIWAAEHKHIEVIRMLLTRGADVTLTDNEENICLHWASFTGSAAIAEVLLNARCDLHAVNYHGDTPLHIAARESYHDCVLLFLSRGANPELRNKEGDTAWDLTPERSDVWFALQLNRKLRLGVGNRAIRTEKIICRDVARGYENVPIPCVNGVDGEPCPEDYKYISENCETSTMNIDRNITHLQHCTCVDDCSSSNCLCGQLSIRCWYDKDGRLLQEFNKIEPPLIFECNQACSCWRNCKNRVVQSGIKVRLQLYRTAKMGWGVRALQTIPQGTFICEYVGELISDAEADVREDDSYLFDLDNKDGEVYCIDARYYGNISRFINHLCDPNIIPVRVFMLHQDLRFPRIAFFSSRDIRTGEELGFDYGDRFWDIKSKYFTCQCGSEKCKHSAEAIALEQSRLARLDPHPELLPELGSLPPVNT

Which Potency does the source give for CC(=O)C1=C(C)N(c2ccccc2)C(=O)C1(NS(=O)(=O)c1ccc(N)cc1)C(F)(F)F (centres undefined) here?
The Potency was inconclusive: 50.1 µM [inhibitor, partial curve, poor fit].

How did the Potency turn out when COc1ccc(CNC(=O)CCC(=O)n2ncc3cc(C)ccc32)cc1 was run?
Its Potency is inconclusive: 89.1 µM [inhibitor, single point].

COc1cc(S(=O)(=O)Nc2ccc3cn[nH]c3c2)ccc1Cl was tested. Which Potency did it give?
Its Potency is inconclusive: 44.7 µM [inhibitor, partial curve, poor fit].

Which Potency does the source give for S=C(NNc1nc(Nc2ccccc2)nc(N2CCCCC2)n1)NC1CCCCC1 here?
Its Potency is inconclusive: 89.1 µM [inhibitor, partial curve, poor fit].

With Cc1cccc(C(=O)NCCc2nnc(SCC(=O)Nc3cccc(C(=O)O)c3)n2C)c1 as the compound, how does the activity, negative = inhibition read?
Its activity, negative = inhibition is inactive: 8.03% [at 0.501 µM].

Which Potency does the source give for COc1cccc(C2C(C(=O)c3sc(C)nc3C)=C(O)C(=O)N2CCN2CCOCC2)c1OC (centres undefined) here?
Its Potency is inconclusive: 20 µM [inhibitor, single point].

With COc1ccc(C(=O)OC(C)CN2CCN(C)CC2)cc1 (centres undefined) as the compound, how does the Potency read?
The Potency was inconclusive: 89.1 µM [inhibitor, single point].

With COc1cccc(/C=C/C(=O)Nc2ccc3nc(N4CCN(C)CC4)cc(C)c3c2)c1OC as the compound, how does the Potency read?
Its Potency is inconclusive: 12.6 µM [inhibitor, partial curve, poor fit].

With Clc1ccc(-c2cc(C3CCNCC3)[nH]n2)cc1 as the compound, how does the Potency read?
Its Potency is inconclusive: 50.1 µM [inhibitor, partial curve, poor fit].

Which Potency does the source give for CCOc1ccccc1-c1ccc(C(=O)O)s1 here?
Its Potency is inconclusive: 35.5 µM [inhibitor, single point].

How did the Potency turn out when Cc1ccc(-n2c(=O)cc(N3CCN(Cc4ccccc4)CC3)[nH]c2=O)cc1 was run?
Its Potency is inconclusive: 0.794 µM [inhibitor, full curve, poor fit].

How did the Potency turn out when COc1ccc(OC)c(NC(=O)c2ccccc2N(Cc2ccccc2)S(C)(=O)=O)c1 was run?
Its Potency is inconclusive: 89.1 µM [inhibitor, single point].

For Cc1ccc2c(c1C)NC(=O)C21N2CCCC2C(C(=O)c2ccc3ccccc3c2)C12C(=O)Nc1ccccc12 (centres undefined), which activity, negative = inhibition is on record?
Its activity, negative = inhibition is inconclusive: -69.3% [inhibitor].

With COc1cccc(C=Nc2ccc(C)c(F)c2)c1O as the compound, how does the Potency read?
The Potency was inconclusive: 28.2 µM [inhibitor, single point].

For COc1ccc(COC(=O)c2sc3nc4n(c(=O)c3c2C)CCC4)cc1, which Potency is on record?
The Potency was “inactive”.

Which Potency does the source give for COc1cc2c(cc1OC)-c1cc(NC3CCCCC3)nc(=O)n1CC2 here?
Its Potency is inconclusive: 100 µM [inhibitor, single point].

How did the Potency turn out when O=C(Nc1ccc(N2CCOCC2)cc1)c1cccnc1 was run?
The Potency was inconclusive: 7.94 µM [inhibitor, full curve, poor fit].

How did the Potency turn out when Cc1nc(-c2ccccc2)sc1C(=O)NN was run?
The Potency was inconclusive: 89.1 µM [inhibitor, partial curve, poor fit].

For O=C(C1=C(O)C(=O)N(CCOCCO)C1c1cccs1)c1cccs1 (centres undefined), which Potency is on record?
Its Potency is active: 44.7 µM.

With CN1CCc2c(sc3nc(SCC(N)=O)n(-c4ccc(Cl)cc4)c(=O)c23)C1 as the compound, how does the Potency read?
The Potency was inconclusive: 79.4 µM [inhibitor, single point].

How did the Potency turn out when C/C(=N\Nc1ccc(Cl)c(C(=O)O)c1)c1cccc([N+](=O)[O-])c1 was run?
Its Potency is active: 15.8 µM.

For N=c1ncn(CC(O)CO)c2nc(N3CCOCC3)[nH]c12 (centres undefined), which Potency is on record?
The Potency was “inactive”.

How did the Potency turn out when CCOC(=O)c1sc2ncnc(OC)c2c1C was run?
The Potency was inconclusive: 0.794 µM [inhibitor, full curve, poor fit].

With Cc1cc(C(=O)NCc2ccccc2Cl)c2c(C)nn(-c3ccccc3)c2n1 as the compound, how does the Potency read?
The Potency was “inactive”.

With CC(C)c1csc(CN2CCC(n3nccc3NC(=O)Cc3ccccc3)CC2)n1 as the compound, how does the Potency read?
Its Potency is inconclusive: 89.1 µM [inhibitor, single point].

With Oc1ccc(Nc2nc(-c3ccccc3O)nc3ccccc23)cc1 as the compound, how does the Potency read?
Its Potency is active: 50.1 µM.

How did the Potency turn out when CCCCn1c(N)c(N(CCOC)C(=O)c2ccc(S(=O)(=O)N3CCCCCC3)cc2)c(=O)[nH]c1=O was run?
The Potency was inconclusive: 39.8 µM [inhibitor, partial curve].

CCOc1ccc(NC(=O)CCc2nnc3ccc(N4CCC5(CC4)OCCO5)nn23)cc1 was tested. Which Potency did it give?
The Potency was “inactive”.

How did the Potency turn out when COc1ccc(-c2ccc3nnc(SCC(=O)Nc4ccc(NC(C)=O)cc4)n3n2)cc1 was run?
The Potency was “inactive”.

With CCNC(=O)c1sc(=S)n(-c2ccc(C)cc2)c1N as the compound, how does the Potency read?
The Potency was active: 31.6 µM.

How did the Potency turn out when COCCSc1ccccc1C(=O)Nc1ccc(Br)cc1 was run?
The Potency was active: 20 µM.

How did the Potency turn out when CCOC(=O)CSc1nc2c(c(=O)n(Cc3ccccc3Cl)c(=O)n2C)n1C was run?
Its Potency is inconclusive: 89.1 µM [inhibitor, single point].

For COc1ccc(S(=O)(=O)N2CCN(CCCOc3ccc(F)cc3)CC2)cc1OC, which Potency is on record?
The Potency was “inactive”.

With Cc1cc2cc(CN(CCN3CCOCC3)C(=O)Nc3ccccc3F)c(=O)[nH]c2cc1C as the compound, how does the Potency read?
The Potency was “inactive”.

Which Potency does the source give for C=CCN=C1N[C@@H](c2ccccc2)C(C(=O)OC)=C(C)N1CC here?
The Potency was active: 39.8 µM.

Which Potency does the source give for CCCS(=O)(=O)c1c(S(=O)(=O)CCC)c2cnccn2c1C(=O)c1ccc(Cl)cc1 here?
The Potency was inconclusive: 89.1 µM [inhibitor, single point].

COC(=O)CSc1nnc(CNC(=O)c2ccccc2OC)n1C was tested. Which Potency did it give?
The Potency was inconclusive: 79.4 µM [inhibitor, partial curve].

Cc1ccccc1NC(=O)Cc1nc(-c2c[nH]c(C(=O)N3CCCC3)c2)cs1 was tested. Which Potency did it give?
Its Potency is inconclusive: 31.6 µM [inhibitor, single point].

Which Potency does the source give for CCN(CC)CCNC(=O)c1ccc2c(=O)n3nc(Nc4ccccc4OC)sc3nc2c1 here?
The Potency was inconclusive: 6.31 µM [inhibitor, single point].

With CCc1nc2ccccc2c(C(=O)OCC(=O)Nc2cccc(S(=O)(=O)NC3=NCCCCC3)c2)c1C as the compound, how does the Potency read?
Its Potency is inconclusive: 20 µM [inhibitor, full curve].

With CCOc1ccc(-c2nc(CSCC(=O)NCc3ccc(Cl)cc3)c(C)o2)cc1 as the compound, how does the Potency read?
Its Potency is “inactive”.

Cc1c(C(=O)O)sc2nc(CSc3nnc(-c4ccc(F)cc4)n3C)[nH]c(=O)c12 was tested. Which Potency did it give?
Its Potency is active: 35.5 µM.

With CCC(C(=O)NCCc1ccccc1)n1nc(C)n2c(cc3sccc32)c1=O (centres undefined) as the compound, how does the Potency read?
Its Potency is “inactive”.

COc1ccc(C2C(C(=O)c3ccco3)=C(O)C(=O)N2CCOCCO)cc1OC (centres undefined) was tested. Which activity, negative = inhibition did it give?
The activity, negative = inhibition was inconclusive: -56.6% [inhibitor].
